Results on 120 sequences are retold here after the supplement of paper PMC10126150.

Values marked as one replicate rest on one cluster of the flow cell; about a third of the high ones do not repeat.

In the data set the test system is ATP. The experiment in a line: switch fluorescence ratio, 500 uM ATP over buffer (Cy3 cluster intensity, sum of 5 cycles each) (fold (ratio)); higher = stronger signal-on switching upon ATP binding; sequences stand for … in TCGTCGGCAGCGTCAGATGTGTATAAGAGACAGTTTTTTTTTTTTTTTTTTTTTTTTT…TC. The note with it: aptamer strand: ATP DNA aptamer (quencher-CACCTGGGGGAGTATTGCGGAGGAAGG + anchor), 100 nM annealed; ATP concentration: 500 uM; one replicate. The method, boiled down: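 The quencher-labelled ATP aptamer, at 100 nM, was annealed to Cy3-labelled switching-strand clusters on a modified Illumina MiSeq flow-cell. The clusters were imaged in selection buffer, then after 15 min with 500 uM ATP at 22 °C, and this buffer/ATP cycle ran five times with NaOH stripping and re-annealing between runs. Per-cluster fluorescence ratios, summed target-cycle over summed buffer-cycle Cy3 intensity, were averaged per switch-domain sequence. Clusters outside 100-1000 RFU were excluded.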
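Also: ATP exposure 15 min at 22 °C before imaging.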

As for CGCTAGGAAC, the switch fluorescence ratio was determined as 1.11.

With GGGGAGTATC, the switch fluorescence ratio was 1.02.

With TCGTTTCAG, the switch fluorescence ratio was 1.01.

Turning to TTTCAAGAAC, the switch fluorescence ratio was determined as 0.943.

Turning to TTCCACATC, the switch fluorescence ratio was 1.03.

In the case of CAGGAACAAT, the switch fluorescence ratio amounted to 1.26.

For ATATTTCGG, the switch fluorescence ratio was found to be 0.986.

In the case of CGATTGTCAG, the switch fluorescence ratio is 0.99.

With GTGAGACGGG, the switch fluorescence ratio is 0.978.

With GTCAATCTGT, the switch fluorescence ratio is 1.04.

On to CGTGCACTAT, for which the switch fluorescence ratio turned out to be 0.963.

For the sequence CTCGGGGTAT, the switch fluorescence ratio came to 1.

As for ACAGGTCGTC, the switch fluorescence ratio is 1.01.

For CAAATGCTTG, the switch fluorescence ratio came out at 1.02.

Regarding TGAAGTTGAG, the switch fluorescence ratio came out at 1.01.

Turning to GGTCCAGTAA, the switch fluorescence ratio was 1.03.

In the case of TCGCTTGTCG, the switch fluorescence ratio was determined as 1.02.

Turning to CCATCCTACG, the switch fluorescence ratio was 2.91.

For CATAGTTACT, the switch fluorescence ratio came out at 1.08.

TTTTGACGGC: the switch fluorescence ratio turned out to be 1.15.

For TCCCAAGCGG, the switch fluorescence ratio turned out to be 1.05.

As for CGCCACTGGA, the switch fluorescence ratio came to 1.07.

With ACCCAGATAT, the switch fluorescence ratio came out at 1.05.

For GGGAAGCCCC, the switch fluorescence ratio worked out at 1.1.

As to AACCAGGTTA, the switch fluorescence ratio worked out at 1.03.

Turning to CATATAAGAT, the switch fluorescence ratio is 1.03.

On to AGATTCGTAT, for which the switch fluorescence ratio worked out at 1.

Turning to GGGGAATCCC, the switch fluorescence ratio was 1.01.

For GGTCATTATG, the switch fluorescence ratio worked out at 0.982.

Consider ATGGGCTGAT, for which the switch fluorescence ratio came to 0.989.

For the sequence CGTGTCGTGT, the switch fluorescence ratio was 0.988.

As to ACGTTAATTT, the switch fluorescence ratio stood at 1.16.

Regarding AGATACAGT, the switch fluorescence ratio is 1.04.

In the case of TTCGGAGAAG, the switch fluorescence ratio is 1.06.

Turning to TTTGGTTTCT, the switch fluorescence ratio is 1.

On to ATGAGCGAAC, for which the switch fluorescence ratio is 1.06.

Turning to CCTAGTGTGC, the switch fluorescence ratio worked out at 1.17.

Take GCCTAGAATA: the switch fluorescence ratio worked out at 0.959.

Take AATATCCGAT: the switch fluorescence ratio came out at 1.02.

On to AAGTTGTACT, for which the switch fluorescence ratio turned out to be 0.971.

As to CGATCTTTGC, the switch fluorescence ratio was 0.991.

With ATTTCTCTGG, the switch fluorescence ratio was determined as 1.

GTGTGCGGCG: the switch fluorescence ratio was 0.94.

As to AATTCGATCC, the switch fluorescence ratio was 1.06.

For the sequence TCCCTAAAGG, the switch fluorescence ratio turned out to be 1.14.

As to ACCTTTTGTT, the switch fluorescence ratio was determined as 1.02.

On to GCCTAATCGG, for which the switch fluorescence ratio turned out to be 1.05.

Take GCTACCATCA: the switch fluorescence ratio stood at 1.02.

TTCTTGTTGC: the switch fluorescence ratio came to 1.

Regarding CAAGTCTTT, the switch fluorescence ratio was 0.978.

As for AGGAGTCGGG, the switch fluorescence ratio stood at 1.01.

TTTAACGG: the switch fluorescence ratio is 1.02.

Take TTAAGTTATG: the switch fluorescence ratio was determined as 1.01.

Consider AATTCTCGT, for which the switch fluorescence ratio was found to be 1.01.

For the sequence AGCTCGACGA, the switch fluorescence ratio was 1.02.

For GAATGAGGAA, the switch fluorescence ratio was 1.04.

Take GCCCATTTTA: the switch fluorescence ratio turned out to be 1.

Consider ATTGTGTT, for which the switch fluorescence ratio was 0.981.

Turning to GGCCGCAGTC, the switch fluorescence ratio was determined as 2.15.

With TATGTTTTTG, the switch fluorescence ratio stood at 0.957.

Regarding TATAAGTGAC, the switch fluorescence ratio was found to be 1.04.

For the sequence GCAGGATACA, the switch fluorescence ratio was found to be 1.05.

For the sequence TCGCGAGGCT, the switch fluorescence ratio turned out to be 1.31.

Regarding ACAGTGAGGC, the switch fluorescence ratio came out at 1.03.

Turning to CTGTCCAACC, the switch fluorescence ratio was 1.08.

Turning to CGACAGCGAT, the switch fluorescence ratio came out at 5.64.

Take CCCGGCTTCT: the switch fluorescence ratio was 1.03.

As to ATAGCGGTTA, the switch fluorescence ratio was found to be 0.998.

For the sequence ATATAACTAC, the switch fluorescence ratio turned out to be 1.03.

Turning to CGCATTGCGT, the switch fluorescence ratio came out at 1.01.

Turning to AATGTTGGAC, the switch fluorescence ratio is 1.01.

As to GTCGACAGCC, the switch fluorescence ratio worked out at 0.965.

On to AGGTAGGTT, for which the switch fluorescence ratio came to 0.989.

As for CACTACCAAC, the switch fluorescence ratio stood at 1.25.

TGAGATGAGA: the switch fluorescence ratio turned out to be 0.983.

With TAACGAGCAT, the switch fluorescence ratio stood at 1.11.

Take ATAATGGCGT: the switch fluorescence ratio is 0.989.

As for ACTGACAGAG, the switch fluorescence ratio was 0.951.

As for GTTGATGGAT, the switch fluorescence ratio worked out at 0.955.

With GAACGGGAC, the switch fluorescence ratio was 2.38.

Turning to ATGAAAGAAA, the switch fluorescence ratio was 0.973.

As for CCGGAGTCCG, the switch fluorescence ratio is 1.1.

As for AGGGCCTATA, the switch fluorescence ratio was 0.957.

With GGTATGAAAG, the switch fluorescence ratio was found to be 1.03.

On to GTCGTTGTGT, for which the switch fluorescence ratio was 1.02.

On to GAGCTCAGGC, for which the switch fluorescence ratio turned out to be 1.01.

For GCCCAATAGT, the switch fluorescence ratio was 1.2.

As for CGGATGTGGG, the switch fluorescence ratio turned out to be 0.983.

For the sequence CGGTCGTTAT, the switch fluorescence ratio was 1.02.

Regarding AACCTCTCTG, the switch fluorescence ratio turned out to be 1.25.

As to TAAGTTCTCA, the switch fluorescence ratio was found to be 1.04.

On to TTAGTCTTGT, for which the switch fluorescence ratio turned out to be 1.03.

Take ATATCCAAGC: the switch fluorescence ratio stood at 1.05.

As for GATGTCATAC, the switch fluorescence ratio came out at 1.51.

As to ATCGATTGAA, the switch fluorescence ratio was 0.945.

Turning to GTACATATTG, the switch fluorescence ratio is 0.962.

For TGGATATTGT, the switch fluorescence ratio stood at 0.994.

Turning to ATGCTTAATA, the switch fluorescence ratio is 0.998.

In the case of ATGTCTTCCC, the switch fluorescence ratio worked out at 1.04.

In the case of GCACATTTAT, the switch fluorescence ratio amounted to 1.03.

For GATCGTTCTC, the switch fluorescence ratio is 0.958.

Turning to ATACATCAGG, the switch fluorescence ratio came to 1.14.

With TCGGTGTCCA, the switch fluorescence ratio turned out to be 0.937.

For GGTTCGTTCT, the switch fluorescence ratio was determined as 0.977.

With CCGTTAAACC, the switch fluorescence ratio is 1.25.

For the sequence TCACTATGAA, the switch fluorescence ratio is 1.01.

On to AGTTCGAGCT, for which the switch fluorescence ratio was found to be 0.974.

Turning to GATGTAACGG, the switch fluorescence ratio was found to be 0.99.

Take GGGGGCTGGC: the switch fluorescence ratio stood at 0.997.

For the sequence GCCAATTTGT, the switch fluorescence ratio is 0.974.

In the case of TTCTCCTTTC, the switch fluorescence ratio came to 1.1.

AGGAGACAAA: the switch fluorescence ratio was determined as 1.07.

Consider CGAGCGTCGG, for which the switch fluorescence ratio stood at 1.02.

For the sequence CTCGTCGGTC, the switch fluorescence ratio worked out at 1.05.

With ACGGCGCCAC, the switch fluorescence ratio amounted to 1.14.

Take TGGTTTAC: the switch fluorescence ratio is 1.1.

In the case of TTTATGATGT, the switch fluorescence ratio stood at 1.01.

Regarding TGTGGCTTGG, the switch fluorescence ratio was 0.978.

As for TGCTTGACCA, the switch fluorescence ratio came to 1.08.

Consider CGGGCTTCA, for which the switch fluorescence ratio came out at 1.
